The values that follow come from paper PMC4336329 (PLoS ONE, 2015).

The whole screen tested about 310,000 compounds, of which about 2,200 (0.71%) showed an effect of 50% or more. The effect is printed as a negative number. This is one part of the list.

In this experiment the target is human ether-à-go-go-related gene (hERG) potassium channel (human, UniProt Q12809). In words: primary screen, population patch clamp on CHO cells stably expressing hERG.
Sequence of human ether-à-go-go-related gene (hERG) potassium channel (Q12809 whole entry, looked up): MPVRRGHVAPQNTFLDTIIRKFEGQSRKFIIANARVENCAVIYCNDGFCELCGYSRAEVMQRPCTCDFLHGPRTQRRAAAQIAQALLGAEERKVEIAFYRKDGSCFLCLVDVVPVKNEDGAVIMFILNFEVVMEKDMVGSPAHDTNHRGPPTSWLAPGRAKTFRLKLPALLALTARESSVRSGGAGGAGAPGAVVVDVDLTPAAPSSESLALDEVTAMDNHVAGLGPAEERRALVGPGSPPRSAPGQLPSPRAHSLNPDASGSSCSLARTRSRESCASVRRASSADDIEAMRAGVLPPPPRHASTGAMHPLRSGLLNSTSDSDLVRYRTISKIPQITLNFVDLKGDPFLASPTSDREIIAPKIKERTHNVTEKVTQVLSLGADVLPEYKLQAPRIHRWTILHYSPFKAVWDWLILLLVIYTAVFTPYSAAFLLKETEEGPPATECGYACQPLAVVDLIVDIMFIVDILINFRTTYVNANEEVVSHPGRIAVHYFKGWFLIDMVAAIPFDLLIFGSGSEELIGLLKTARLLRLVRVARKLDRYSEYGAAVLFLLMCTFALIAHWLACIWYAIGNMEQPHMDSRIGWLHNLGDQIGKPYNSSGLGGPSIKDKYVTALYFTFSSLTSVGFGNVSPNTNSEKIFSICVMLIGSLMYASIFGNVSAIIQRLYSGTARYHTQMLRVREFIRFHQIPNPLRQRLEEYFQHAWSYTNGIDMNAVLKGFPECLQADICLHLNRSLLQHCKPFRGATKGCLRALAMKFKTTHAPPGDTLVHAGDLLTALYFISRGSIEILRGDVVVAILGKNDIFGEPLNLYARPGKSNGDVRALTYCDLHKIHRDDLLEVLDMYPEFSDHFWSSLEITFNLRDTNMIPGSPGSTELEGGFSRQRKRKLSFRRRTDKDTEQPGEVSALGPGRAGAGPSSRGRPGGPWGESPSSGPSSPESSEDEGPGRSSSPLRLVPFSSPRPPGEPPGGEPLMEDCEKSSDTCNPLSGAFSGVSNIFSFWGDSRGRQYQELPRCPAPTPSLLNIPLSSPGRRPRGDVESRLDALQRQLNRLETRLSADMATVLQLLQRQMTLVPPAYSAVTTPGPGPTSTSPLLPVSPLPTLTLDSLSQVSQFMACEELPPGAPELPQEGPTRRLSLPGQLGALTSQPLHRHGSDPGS
As for `COc1ccc(S(=O)(=O)Cc2ccc(C(=O)N3CCN(C4CCCCC4)CC3)o2)cc1`, the “hERG current change (%, negative = inhibition) at 1uM” value is -5.61%.
The result for `CCOC(=O)c1c(SCC(=O)Nc2nccs2)nc(C)c(C)c1C` reads 11%.
The result for `COc1ccc(S(=O)(=O)N2CCOCC2)cc1NC(=O)CCNC(=O)c1ccc(Br)cc1` reads 6.66%; that for `O=C(COc1ccc2c3c(c(=O)oc2c1)CCCC3)NCCCn1ccnc1`, 6.73%; that for `Br.Cc1ccc(Nc2nc(-c3c(C)nc4ccccn34)cs2)cc1`, -23.5%.
The result for `CCCS(=O)(=O)NCCc1cc2c(C)ccc(C)c2[nH]c1=O` reads 3.84%; that for `CCOC(=O)CSc1cn2c(n1)CCC2`, 14.5%; that for `CC(=O)N1CCCc2cc(S(=O)(=O)Nc3ccc4c(c3)OCO4)ccc21`, 9.76%.
As for `O=c1c2ccccc2nc(-c2ccccc2Cl)n1O`, the “hERG current change (%, negative = inhibition) at 1uM” value is 11.5%.
`CCOC(=O)C1=C(Cc2ccc(Cl)cc2)C(=O)c2ccccc2C1=O`: the “hERG current change (%, negative = inhibition) at 1uM” value is -4.95%.
The result for `C=CCN1C(=O)c2ccccc2Sc2ccc(C(=O)N3CCC4(CC3)OCCO4)cc21` reads 7.05%.
The result for `O=C(Cc1ccc(-n2c(=O)c3sccc3n(Cc3ccc(F)cc3)c2=O)cc1)NCc1ccco1` reads 7.78%.
Consider `COC(=O)c1ccc(Cl)c(NC(=O)NC2CCCCC2)c1`, for which the “hERG current change (%, negative = inhibition) at 1uM” value was 13.2%.
For `CCOc1ccc(NC(=O)C/C(C)=N/NC(=O)COc2ccc(Br)cc2C)cc1`, the “hERG current change (%, negative = inhibition) at 1uM” value is recorded as 8.25%.
In the case of `CC1CCCCN1C(=O)CN(C)S(=O)(=O)c1cccc2nsnc12` (stereo not drawn) it was 11.9%.
In the case of `COCC(C)n1c(C)cc(C(=O)COC(=O)c2c(C)nn(-c3ccccc3)c2C)c1C` (stereo not drawn) it was 5.13%; in that of `CCCCN(C)Cc1c(C)[nH]c2c(ccc3ccccc32)c1=O`, -56.1%; in that of `O=C(O)c1cc(-c2ccc(Cl)cc2)n[nH]1`, -0.981%.
Regarding `Cc1occc1C(=O)N/N=C/C=C/c1ccccc1[N+](=O)[O-]`, the “hERG current change (%, negative = inhibition) at 1uM” value is on record as 2.1%.
On to `O=C(CC(c1ccccc1)c1cc(Br)ccc1O)NCCN1CCOCC1` (stereo not drawn), for which the “hERG current change (%, negative = inhibition) at 1uM” value is -4.66%.
The result for `O=C(Nc1ccc(Br)cc1)c1cc([N+](=O)[O-])cc([N+](=O)[O-])c1` reads 14.1%; that for `CC1(C)Cc2ccccc2C(CSc2ccccc2C(=O)O)=N1`, 17.3%; that for `COc1cc2c(cc1OC)-c1c3c(cc4c1[C@@H](C2)N(C)CC4)OCO3`, 2.56%.
For the compound `Cc1cccc(NC(=O)CSCC(=O)Nc2ccc(S(=O)(=O)N3CCCC3)cc2)c1`, the “hERG current change (%, negative = inhibition) at 1uM” value stood at 2.76%.
As for `N#CC(C(=O)Nc1ccc(Cl)c(Cl)c1)=C1Nc2ccccc2N1`, the “hERG current change (%, negative = inhibition) at 1uM” value is reported as -4.9%.
As to `CCOC(=O)N1CCC(Nc2c(Nc3ccc(C)c(C)c3)c(=O)c2=O)CC1`, the “hERG current change (%, negative = inhibition) at 1uM” value was -0.493%.
The result for `CCOc1ccccc1NS(=O)(=O)c1csc(C(N)=O)c1` reads 13.3%; that for `O=C(c1cccc(S(=O)(=O)N2CCN(c3ccccc3)CC2)c1)N1CC=C(c2ccccc2)CC1`, 13.8%; that for `Cc1cc(C(=O)N/N=C/c2ccc([N+](=O)[O-])cc2)c2ccccc2n1`, 11.5%.
In the case of `O=C(Nc1oc2ccc(Cl)cc2c(=O)c1-c1ccc(F)cc1)c1ccco1` it was 9.1%; in that of `CCOC(=O)COc1cccc2c(=O)n(CC(=O)NCCc3ccccc3)ccc12`, 8.91%.
`NC(=O)C(Cc1ccccc1)NS(=O)(=O)c1ccc(N2CCCC2=O)cc1` (stereo not drawn): the “hERG current change (%, negative = inhibition) at 1uM” value is on record as 2.42%.
The result for `Cc1ccc(S(=O)(=O)NCC2CCC(C(=O)NC3CCCCC3)CC2)cc1` (stereo not drawn) reads 13.1%; that for `COc1ccc(OC)c(-c2c(C#N)c(N)nc3c2c(=O)nc2sccn23)c1`, 12.7%; that for `Cc1cc(N(CC(=O)NC2CC2)S(C)(=O)=O)ccc1Br`, 12.5%.
The result for `CC1CCN(C(=O)CC2C(=O)Nc3c2c(=O)n(C)c(=O)n3Cc2ccccc2)CC1` (stereo not drawn) reads 5.67%.
The result for `CCCCn1c(N)c(N(CCC(C)C)C(=O)C2CCCN(C(=O)c3ccc(Cl)cc3)C2)c(=O)[nH]c1=O` (stereo not drawn) reads 7.62%.
In the case of `CCOC(=O)C1CCCN(C(=O)c2ccc(Cl)c(S(=O)(=O)N3CCCCCC3)c2)C1` (stereo not drawn), the “hERG current change (%, negative = inhibition) at 1uM” value is listed as -27.5%.
In the case of `C[C@@H](C(=O)Nc1ccc2ccccc2c1)[C@@H]1C[C@@]1(C)[C@@H](NC(=O)c1ccccc1)c1ccccc1` it was -5.33%; in that of `COc1ccc(CCn2c([O-])cc3nn(-c4nc5ccccc5s4)c(=O)c-3c2C)cc1`, 12%; in that of `COc1cccc(C(=O)Oc2ccc(/C=N/Nc3ccc(C(=O)O)cc3)cc2OC)c1`, 11.8%.
Turning to `CCCC(=O)Nc1ccc(N2CCCCC2)cc1`, the “hERG current change (%, negative = inhibition) at 1uM” value amounted to 3.34%.
With `O=C(Nc1ccc(O)cc1)C1CCCN1S(=O)(=O)c1ccc(F)cc1` (stereo not drawn), the “hERG current change (%, negative = inhibition) at 1uM” value is reported as 6.47%.
The result for `COc1ccc(NC(=O)c2ccc(CNc3c(NC4CCCCC4)c(=O)c3=O)cc2)cc1OC` reads -8.27%.
`O=C(Cc1cccs1)N1CCN=C1SCc1ccc(Br)cc1`: the “hERG current change (%, negative = inhibition) at 1uM” value is on record as 6.45%.
In the case of `O=C(CCCN1C(=O)c2cccc3cccc(c23)C1=O)N1CCN(c2ccccn2)CC1` it was -3.45%; in that of `CCc1cc2c(=O)c(-c3nc4ccccc4n3C)c(COCC(=O)O)oc2cc1O`, 11.9%.
The result for `O=C(COc1ccc(C2SCCS2)cc1)Nc1ccc(Cl)cc1` reads 0.735%; that for `CC(=O)NN1C(=O)c2ccc(Oc3cccc([N+](=O)[O-])c3)cc2C1=O`, -2.94%; that for `CCN(CC)S(=O)(=O)c1ccc(N(C)C)c(NC(=O)C2CCCC2)c1`, 2.32%.
In the case of `CSCC[C@H](NC(=O)OC(C)(C)C)c1nnc(SCC=C(C)C)o1` it was 2.36%.
As to `CCN1CCC2(CC1)N=C(c1ccc(F)cc1)C(=S)N2C(=O)c1ccc(C(C)(C)C)cc1`, the “hERG current change (%, negative = inhibition) at 1uM” value was 4.27%.
The result for `COc1ccc(CCNC(=O)c2ccc3c(c2)OCO3)cc1` reads 11.4%.
In the case of `O=C(O)c1ccccc1Nc1ccc([N+](=O)[O-])c2nonc12` it was -2.95%.
